The source of these data is the supplement of paper PMC10037445.

Assay [1] deals with RAW-Dual. Nature of the assay: IRF Lucia reporter activity, fold change vs agonist alone; cytotoxicity flag (confluency mask): not cytotoxic; higher = enhanced IRF activity. The essentials: (§1)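 RAW-Dual macrophages (50,000 cells/well in DMEM, 384-well plates) received 50 nL of library stock by pin tool, then a PRR agonist 1 h later, and were kept at 37 °C, 5% CO2. After 20 hours, supernatant was read for IRF by QuantiLuc luminescence and for NF-κB by QuantiBlue absorbance at 620 nm. Reporter activity is fold change over agonist-alone wells. Cytotoxic wells had IncuCyte confluency below 70% of agonist controls in both mask sets.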

Assay [2] relates to RAW-Dual. Nature of the assay: IRF Lucia reporter activity, fold change vs agonist alone; higher = enhanced IRF activity. The following applies: agonist: MPLA (TLR4) […]. The method, boiled down: as §1
The subject of assay [3] is RAW-Dual. Nature of the assay: IRF Lucia reporter activity, fold change vs agonist alone; cytotoxicity flag (confluency mask): cytotoxic (confluency <70% of control); higher = enhanced IRF activity. The method, boiled down: as §1
Where [4] appears, read: agonist: 3'3'-cGAMP (STING) 10 ug/mL.
Where [5] appears, read: library stock concentration (final ~1000-fold dilution): 10 mM, cytotoxicity flag (confluency mask): cytotoxic (confluency <70% of control).
[6] abbreviates: library stock concentration (final ~1000-fold dilution): 10 mM, cytotoxicity flag (confluency mask): not cytotoxic.

Over roughly 2,900 compounds, “IRF Lucia reporter activity, fold change vs agonist alone” has its median near 0.9; the highest 2% begin near 2.8. Some of the results follow.

On to `COc1ccc(-c2oc3c(CC=C(C)C)c(O)cc(O)c3c(=O)c2O)cc1` (library stock concentration (final ~1000-fold dilution): 10 mM), for which the “IRF Lucia reporter activity” value in the assay with RAW-Dual [1] (setting [4]) is 1.06; with RAW-Dual [1] (agonist: LPS (TLR4) 0.1 ug/mL), 0.864.

`CCCCNc1ncc(-c2ccc(CN3CCOCC3)cn2)c(NC2CCC(O)CC2)n1` (configuration not stated) (library stock concentration (final ~1000-fold dilution): 2 mM): the “IRF Lucia reporter activity” value with RAW-Dual [1] (setting [4]) is 0.687; in the assay on RAW-Dual [1] (agonist: LPS (TLR4) 0.1 ug/mL) it was 0.485.

Regarding `CCCCNc1ncc(-c2ccc(CN3CCOCC3)cn2)c(NC2CCC(O)CC2)n1` (configuration not stated), in the assay on RAW-Dual [2] (library stock concentration (final ~1000-fold dilution): 2 mM, cytotoxicity flag (confluency mask): not cytotoxic), the “IRF Lucia reporter activity” value is 0.982.

`CS(=O)(=O)O.O=C(Nc1cccc(Cl)c1)Nc1ncc(CCNc2ncnc3ccsc23)s1`: in the assay with RAW-Dual [2] (setting [5]), the “IRF Lucia reporter activity” value came out at 0.627.

Turning to `CS(=O)(=O)O.O=C(Nc1cccc(Cl)c1)Nc1ncc(CCNc2ncnc3ccsc23)s1` (library stock concentration (final ~1000-fold dilution): 10 mM), the “IRF Lucia reporter activity” value is 0.193 with RAW-Dual [3] (setting [4]) and 0.396 with RAW-Dual [3] (agonist: LPS (TLR4) 0.1 ug/mL).

For the compound `Br.COc1ccc2c3c1OC1CC(O)C=CC31CCN(C)C2` (configuration not stated), in the assay with RAW-Dual [2] (library stock concentration (final ~1000-fold dilution): 10 mM water, cytotoxicity flag (confluency mask): not cytotoxic), the “IRF Lucia reporter activity” value came to 1.08.

`Br.COc1ccc2c3c1OC1CC(O)C=CC31CCN(C)C2` (configuration not stated) (library stock concentration (final ~1000-fold dilution): 10 mM water): the “IRF Lucia reporter activity” value with RAW-Dual [1] (setting [4]) came out at 0.816; in the assay with RAW-Dual [1] (agonist: LPS (TLR4) 0.1 ug/mL) it was 0.47.

`CN(C(=O)n1cnc(-c2ccc[n+]([O-])c2)c1)C1CCCCC1` (library stock concentration (final ~1000-fold dilution): 10 mM): the “IRF Lucia reporter activity” value was determined as 0.972 with RAW-Dual [1] (setting [4]) and 0.748 in the assay with RAW-Dual [1] (agonist: LPS (TLR4) 0.1 ug/mL).

On to `CN(C(=O)n1cnc(-c2ccc[n+]([O-])c2)c1)C1CCCCC1`, for which, in the assay with RAW-Dual [2] (setting [6]), the “IRF Lucia reporter activity” value was determined as 0.99.

As to `CC(CN1CC(=O)NC(=O)C1)N1CC(=O)NC(=O)C1.Cl` (configuration not stated), the “IRF Lucia reporter activity” value in the assay with RAW-Dual [2] (setting [6]) turned out to be 1.

In the case of `CC(CN1CC(=O)NC(=O)C1)N1CC(=O)NC(=O)C1.Cl` (configuration not stated) (library stock concentration (final ~1000-fold dilution): 10 mM), the “IRF Lucia reporter activity” value with RAW-Dual [1] (setting [4]) was 0.912; in the assay on RAW-Dual [1] (agonist: LPS (TLR4) 0.1 ug/mL), 0.896.

As to `Nc1nc(Nc2ccc(S(N)(=O)=O)cc2)nn1C(=O)c1c(F)cccc1F`, the “IRF Lucia reporter activity” value in the assay on RAW-Dual [2] (setting [5]) is 0.336.

On to `Nc1nc(Nc2ccc(S(N)(=O)=O)cc2)nn1C(=O)c1c(F)cccc1F` (library stock concentration (final ~1000-fold dilution): 10 mM), for which the “IRF Lucia reporter activity” value with RAW-Dual [3] (setting [4]) was 0.146; in the assay with RAW-Dual [3] (agonist: LPS (TLR4) 0.1 ug/mL), 0.259.

On to `Cc1cc(N2CC(C)NC(C)C2)ncc1-c1ccc(-c2nc3c(ccn3C)c(=O)[nH]2)cc1` (configuration not stated) (library stock concentration (final ~1000-fold dilution): 10 mM), for which the “IRF Lucia reporter activity” value was 0.527 in the assay with RAW-Dual [1] (setting [4]) and 1.29 with RAW-Dual [1] (agonist: LPS (TLR4) 0.1 ug/mL).

With `NC(=O)CCCSc1nc(N)nc(-c2c(Cl)cc3c4c(cccc24)COC3)n1`, the “IRF Lucia reporter activity” value in the assay on RAW-Dual [2] (setting [6]) came out at 0.866.

As for `NC(=O)CCCSc1nc(N)nc(-c2c(Cl)cc3c4c(cccc24)COC3)n1` (library stock concentration (final ~1000-fold dilution): 10 mM), the figures for the “IRF Lucia reporter activity” value in the assay on RAW-Dual [1] (setting [4]) and in the assay with RAW-Dual [1] (agonist: LPS (TLR4) 0.1 ug/mL) were 0.88 and 1.26, respectively.

On to `COC(=O)NC(C(=O)N1CC2(CC2)CC1c1ncc(-c2ccc3c(c2)C(F)(F)c2cc(-c4ccc5nc(C6C7CCC(C7)N6C(=O)C(NC(=O)OC)C(C)C)[nH]c5c4)ccc2-3)[nH]1)C(C)C` (configuration not stated) (library stock concentration (final ~1000-fold dilution): 10 mM), for which the figures for the “IRF Lucia reporter activity” value in the assay on RAW-Dual [1] (setting [4]) and in the assay on RAW-Dual [1] (agonist: LPS (TLR4) 0.1 ug/mL) were 0.913 and 1.23, respectively.

For the compound `COC(=O)NC(C(=O)N1CC2(CC2)CC1c1ncc(-c2ccc3c(c2)C(F)(F)c2cc(-c4ccc5nc(C6C7CCC(C7)N6C(=O)C(NC(=O)OC)C(C)C)[nH]c5c4)ccc2-3)[nH]1)C(C)C` (configuration not stated), the “IRF Lucia reporter activity” value in the assay on RAW-Dual [2] (setting [6]) was 0.979.

As for `CN(C)CC(=O)Nc1ccc2[nH]c(=O)c3ccccc3c2c1.Cl`, the “IRF Lucia reporter activity” value with RAW-Dual [2] (setting [6]) stood at 1.03.

Take `CN(C)CC(=O)Nc1ccc2[nH]c(=O)c3ccccc3c2c1.Cl` (library stock concentration (final ~1000-fold dilution): 10 mM): the “IRF Lucia reporter activity” value in the assay on RAW-Dual [1] (setting [4]) amounted to 0.854; with RAW-Dual [1] (agonist: LPS (TLR4) 0.1 ug/mL), 0.837.

With `CN(C)CCC(CSc1ccccc1)Nc1ccc(S(=O)(=O)NC(=O)c2ccc(N3CCN(Cc4ccccc4-c4ccc(Cl)cc4)CC3)cc2)cc1[N+](=O)[O-]` (configuration not stated) (library stock concentration (final ~1000-fold dilution): 10 mM), the results for the “IRF Lucia reporter activity” value in the assay on RAW-Dual [1] (setting [4]) and in the assay with RAW-Dual [1] (agonist: LPS (TLR4) 0.1 ug/mL) were 0.461 and 0.236, respectively.

As for `CN(C)CCC(CSc1ccccc1)Nc1ccc(S(=O)(=O)NC(=O)c2ccc(N3CCN(Cc4ccccc4-c4ccc(Cl)cc4)CC3)cc2)cc1[N+](=O)[O-]` (configuration not stated), in the assay on RAW-Dual [2] (setting [6]), the “IRF Lucia reporter activity” value was determined as 0.663.

As to `CS(=O)c1ccc(-c2nc(-c3ccc(F)cc3)c(-c3ccncc3)[nH]2)cc1` (configuration not stated) (library stock concentration (final ~1000-fold dilution): 10 mM), the “IRF Lucia reporter activity” value in the assay with RAW-Dual [1] (setting [4]) stood at 0.28; in the assay on RAW-Dual [1] (agonist: LPS (TLR4) 0.1 ug/mL), 1.12.

For the compound `CS(=O)c1ccc(-c2nc(-c3ccc(F)cc3)c(-c3ccncc3)[nH]2)cc1` (configuration not stated), the “IRF Lucia reporter activity” value in the assay on RAW-Dual [2] (setting [6]) was determined as 1.

With `Cc1c(Cn2c(C)nc3c(C(=O)O)cc(N4CCOCC4)cc32)cccc1C(F)(F)F` (library stock concentration (final ~1000-fold dilution): 10 mM), the “IRF Lucia reporter activity” value came to 1.19 in the assay with RAW-Dual [1] (setting [4]) and 1.22 with RAW-Dual [1] (agonist: LPS (TLR4) 0.1 ug/mL).

For the compound `O=C(NCc1ccc(Oc2ccccc2)cc1)c1nc(-c2cc(Br)c(O)c(Br)c2)no1` (library stock concentration (final ~1000-fold dilution): 10 mM), the “IRF Lucia reporter activity” value with RAW-Dual [1] (setting [4]) amounted to 1.16; in the assay on RAW-Dual [1] (agonist: LPS (TLR4) 0.1 ug/mL), 1.08.

With `O=C(NCc1ccc(Oc2ccccc2)cc1)c1nc(-c2cc(Br)c(O)c(Br)c2)no1`, the “IRF Lucia reporter activity” value in the assay with RAW-Dual [2] (setting [6]) came out at 1.06.

Regarding `Cn1c(=O)c2c(ncn2CC(O)CO)n(C)c1=O` (configuration not stated) (library stock concentration (final ~1000-fold dilution): 10 mM), the “IRF Lucia reporter activity” value stood at 0.43 in the assay with RAW-Dual [1] (setting [4]) and 0.948 in the assay on RAW-Dual [1] (agonist: LPS (TLR4) 0.1 ug/mL).

With `Cn1c(=O)c2c(ncn2CC(O)CO)n(C)c1=O` (configuration not stated), the “IRF Lucia reporter activity” value in the assay on RAW-Dual [2] (setting [6]) was found to be 0.463.

Consider `Nc1nccs1`, for which, in the assay on RAW-Dual [2] (setting [6]), the “IRF Lucia reporter activity” value came to 1.11.

Take `Nc1nccs1` (library stock concentration (final ~1000-fold dilution): 10 mM): the “IRF Lucia reporter activity” value is 1.1 in the assay with RAW-Dual [1] (setting [4]) and 1.06 in the assay with RAW-Dual [1] (agonist: LPS (TLR4) 0.1 ug/mL).

In the case of `O=S(=O)(NC1CCNCC1)c1cc(S(=O)(=O)c2ccccc2)ccc1C(F)(F)F`, the “IRF Lucia reporter activity” value in the assay with RAW-Dual [2] (setting [6]) came out at 1.04.

As to `O=S(=O)(NC1CCNCC1)c1cc(S(=O)(=O)c2ccccc2)ccc1C(F)(F)F` (library stock concentration (final ~1000-fold dilution): 10 mM), the “IRF Lucia reporter activity” value came out at 0.792 with RAW-Dual [1] (setting [4]) and 1.05 with RAW-Dual [1] (agonist: LPS (TLR4) 0.1 ug/mL).

As for `NC(=O)c1cccnc1`, in the assay on RAW-Dual [2] (setting [6]), the “IRF Lucia reporter activity” value was determined as 0.986.

Take `NC(=O)c1cccnc1` (library stock concentration (final ~1000-fold dilution): 10 mM): the “IRF Lucia reporter activity” value turned out to be 1.01 in the assay on RAW-Dual [1] (setting [4]) and 0.983 in the assay on RAW-Dual [1] (agonist: LPS (TLR4) 0.1 ug/mL).

For the compound `O=C(/C=C/c1ccccc1)NC(NC(=S)Nc1ccc(Cl)cc1)C(Cl)(Cl)Cl` (configuration not stated), the “IRF Lucia reporter activity” value with RAW-Dual [2] (setting [5]) turned out to be 1.34.

On to `O=C(/C=C/c1ccccc1)NC(NC(=S)Nc1ccc(Cl)cc1)C(Cl)(Cl)Cl` (configuration not stated) (library stock concentration (final ~1000-fold dilution): 10 mM), for which the “IRF Lucia reporter activity” value worked out at 0.341 in the assay with RAW-Dual [3] (setting [4]) and 1.2 in the assay with RAW-Dual [3] (agonist: LPS (TLR4) 0.1 ug/mL).
